Our source for the survival values is PubChem BioAssay AID463173 (ICCB-Longwood Screening Facility, Harvard Medical School, 2010).

The whole screen tested about 52,000 compounds, of which about 1,700 (3.3%) were called active. No stated cut-off is given here; in the data, active means survival mostly below about 52% (no sharp cut-off); inactive means mostly above about 56%. Some of the results follow.

This test relates to Wild type. The test is described as follows: growth inhibition of S. aureus wild type versus tarO mutant, primary screen, teichoic acid synthesis inhibitors, RN4220, OD600 (AID 463173). As to conditions: S. aureus RN4220 wild type/DeltatarO growth, OD600, 18 h, active compounds read low, screened at 18.75 µg/mL (by protocol).
`Cc1nn(CCC(=O)N2CCN(c3ccccc3)CC2)c(C)c1S(=O)(=O)N1CCCC1`: the survival is active: -6%.
The result for `CCc1cnc2c(c1SCC(=O)N1CCC(C)CC1)c(=O)n(C)c(=O)n2C` reads inactive: 69%; that for `Cc1c(NC(=O)Nc2ccc(F)c(Cl)c2)c(=O)n(-c2ccccc2)n1C`, inactive: 78%.
The result for `Cc1cccc(N2CC(C)Cn3c2nc2c3c(=O)n(CC(=O)O)c(=O)n2C)c1` (stereo unspecified) reads inactive: 133%; that for `Cc1ccc(-n2nc(C)c3c(C(=O)NCc4ccc(F)cc4)cc(C)nc32)cc1`, inactive: 88%; that for `CCOc1cc(CNC(=O)c2ccc3c(c2)N(C)C(=O)C2CCCCN32)cc(OCC)c1OCC` (stereo unspecified), inactive: 124%.
For `COc1ccc2[nH]c(=O)c(C(c3nnnn3Cc3ccccc3)N3CCc4ccccc43)cc2c1` (stereo unspecified), the survival is inactive: 109%.
To `N#Cc1ccc(-c2cccnc2)n(CC(=O)N2CCOCC2)c1=O` belongs inactive: 113%.
To `O=C(Nc1ccc(F)cc1F)c1cc2c(=O)n3ccccc3nc2s1` belongs inactive: 79%.
To `CCc1cccc(NC(=O)CCc2nc3cccnc3n2-c2ccccc2)c1` belongs inactive: 86%.
As to `CSc1ccc(CCNC(=O)c2ccc(CS(=O)(=O)c3ccc(Br)cc3)o2)cc1`, the survival is inactive: 79%.
Take `CC1CCc2c(sc(NC(=O)c3ccc(Cl)cc3Cl)c2C#N)C1` (stereo unspecified): the survival was inactive: 80%.
To `CCOC(=O)N1CCc2c(sc(NCc3ccc(N(C)C)cc3)c2C(=O)Nc2ccc(OC)cc2)C1` belongs inactive: 73%; to `Nc1nc(N)c2nccnc2n1`, inactive: 105%.
To `O=c1c2sc3ccccc3c2n(Cc2cccc(C(F)(F)F)c2)c(=O)n1Cc1ccccc1` belongs inactive: 92%; to `COc1ccc(C(c2nnnn2C2CCCC2)N2CCN(C(=O)c3ccco3)CC2)cc1OC` (stereo unspecified), inactive: 109%.
To `COc1ccc(NC(=O)CSc2nc(-c3cccs3)cc(C(F)(F)F)c2C#N)cc1` belongs inactive: 113%; to `Cc1c(Cl)cccc1N1C(N)=C(C#N)C(c2cc(CN3CCOCC3)cs2)C2=C1CCCC2=O` (stereo unspecified), inactive: 160%; to `O=C1N(Cc2cccc(C(F)(F)F)c2)c2ccccc2S(=O)(=O)N1c1cccc(Cl)c1`, inactive: 59%.
On to `COc1ccc(CNC(=O)c2cc3cc(S(=O)(=O)N4CCCCC4)ccc3n2C)c(OC)c1`, for which the survival is inactive: 63%.
To `O=c1[nH]c(O)c(C=NCc2ccc3c(c2)OCO3)c(=O)[nH]1` belongs inactive: 111%.
To `COc1ccc(NC(=O)CCc2c(C)nc3c(c2C)c(=O)n(C)c(=O)n3C)cc1OC` belongs inactive: 70%; to `CCN(CC)C(=O)CSc1nc2cc3c(cc2c(=O)n1CCCCCC(=O)NCCc1ccc(OC)c(OC)c1)OCO3`, inactive: 111%.
The result for `Cc1cc(F)ccc1NC(=O)CN(C)S(=O)(=O)c1ccc(C(=O)N2CCOCC2)s1` reads inactive: 80%; that for `CCc1ccc2[nH]c(=O)c(C(c3nnnn3C3CCCC3)N(Cc3ccccc3)Cc3ccco3)cc2c1` (stereo unspecified), inactive: 113%.
`N#Cc1c(C(F)(F)F)cc(-c2cccs2)nc1SCC(=O)Nc1ccc(F)cc1`: the survival was inactive: 94%.
The result for `COc1ccc(CNC(=O)c2ccc3c(c2)N(Cc2ccccc2F)C(=O)c2ccccc2S3(=O)=O)cc1` reads inactive: 84%; that for `CCOc1ccc(NC(=O)c2c(NCc3sccc3C)sc3c2CCCCC3)cc1`, inactive: 102%; that for `Cc1ccc(C(=O)N2CC3(C)CC2CC(C)(C)C3)cc1` (stereo unspecified), inactive: 110%.
To `COCCNC(=O)CCc1c(C)nc2c(c(C)nn2-c2ccc(C)cc2)c1C` belongs inactive: 90%; to `CCCN(CCC)c1nc(-c2ccccc2F)nc2ccccc12`, active: 1%.
The result for `O=C(COc1ccc([N+](=O)[O-])cc1)Nc1cccc2cccnc12` reads inactive: 89%.
In the case of `COc1ccc(OCc2ccc(-c3nc(C#N)c(N4CCN(c5cccc(Cl)c5)CC4)o3)o2)cc1`, the survival was inactive: 93%.
To `O=C(CSc1nc2c([nH]c3ccccc32)c(=O)n1-c1ccc(F)cc1)NC1CCCCC1` belongs inactive: 77%; to `CCc1ccccc1NC(=O)CSC1=Nc2ccccc2C2=NC(Cc3ccccc3)C(=O)N12` (stereo unspecified), inactive: 71%; to `COc1cc(Cl)c(C)cc1NC(=O)Cn1ncc2c(=O)oc3ccccc3c21`, inactive: 92%.
To `COc1cc(NC(=O)C2CCCN(S(=O)(=O)c3ccc4c(c3)CCCC(=O)N4)C2)cc(OC)c1` (stereo unspecified) belongs inactive: 71%.
To `CCC(C(=O)OC)n1cnc2c(cnn2-c2ccc(F)cc2)c1=O` (stereo unspecified) belongs inactive: 84%; to `COc1ccc(-c2nc(SCC(=O)c3ccc(OC)c(Br)c3)n[nH]2)cc1`, inactive: 116%.
On to `CCC(Sc1nc2nccnc2c(=O)n1Cc1ccc(F)cc1)C(=O)NC1CCCCC1` (stereo unspecified), for which the survival is inactive: 68%.
To `CC1(C)CCCC2=C1CC1C(=O)N(O)C(=O)C1C2` (stereo unspecified) belongs inactive: 108%; to `CSc1ncc(Cl)c(C(=O)Nc2ccc(S(=O)(=O)N3CCCC(C)C3)cc2)n1` (stereo unspecified), inactive: 90%.
The result for `CCc1cccc(NC(=O)C2CCC(CNS(=O)(=O)c3csc(C(N)=O)c3)CC2)c1` (stereo unspecified) reads inactive: 69%.
To `CCOc1cccc(C2c3[nH]c4ccccc4c3CCN2C(=O)CCC2CCCC2)c1` (stereo unspecified) belongs inactive: 68%; to `O=C(CSc1ccccn1)c1ccc(Cl)cc1`, inactive: 107%.
Regarding `CCc1ccc(CNC(=O)c2cnc3sc(N4CCCCC4)nn3c2=O)cc1`, the survival is inactive: 95%.
The result for `CCOc1ccc(S(=O)(=O)c2cn(Cc3ccccc3)c3ccc(OCC)cc3c2=O)cc1` reads inactive: 78%; that for `Cc1cc(NC(=O)NCc2ccc3c(c2)CCN3C(=O)c2ccccc2)ccc1Br`, inactive: 135%; that for `CCc1ccc(S(=O)(=O)Nc2cccc(-c3ccc(N4CCC(C)CC4)nn3)c2)s1`, inactive: 57%.
The result for `CC(C)(C)OC(=O)N1CCC(c2c(C(=O)NCc3ccco3)cnn2-c2ccccc2)CC1` reads inactive: 75%; that for `Cc1cc(=O)n2nc(N3CCC(C(=O)NCc4ccccc4)CC3)sc2n1`, inactive: 102%.
The result for `Cc1ccc(NC(=O)Cn2cnc3nc4c(cc3c2=O)CCCC4)cc1Cl` reads inactive: 83%; that for `COc1ccc(C(=O)Nc2ccc(OCc3cc(=O)n4ccsc4n3)cc2)cc1OC`, inactive: 92%; that for `O=C(NCCn1cnc2cccnc21)Nc1ccccc1-c1ccccc1`, inactive: 107%.
Take `CCn1c(=O)cc(SCC(=O)NCc2ccccc2OC)c2ccccc21`: the survival was inactive: 76%.
The result for `COc1ccc2cc(C(=O)NCc3ccc4c(c3)CCN4C(=O)c3ccccc3)[nH]c2c1` reads active: -3%.
